Experimental data as given in PubChem BioAssay AID488969 (Vanderbilt High Throughput Screening Facility, 2010).
Whole data set: some 110,000 compounds, median “z-score” near -0.1, cut for the highest 2% near 2. This is one part of the list. Activity calls are given as the source filed them.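 The calls were made as follows: active = z-score in the third read window above 3 or below -3; inactive = the rest.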

Each molecule was assayed against Metabotropic glutamate receptor 8 (Rattus norvegicus) (UniProt P70579) (assay: mGluR8 Gi/Go-coupled signaling modulation – cell-based, rat, thallium flux, HTS, primary screen (AID 488969)). Settings: HEK293 rat mGluR8, GIRK (G protein-gated inwardly rectifying potassium channel) thallium flux, FluoZin2; at 10 µM; stronger effect = higher value; submaximal glutamate (EC20) added with thallium.
UniProt P70579, sequence (P70579 whole entry, looked up): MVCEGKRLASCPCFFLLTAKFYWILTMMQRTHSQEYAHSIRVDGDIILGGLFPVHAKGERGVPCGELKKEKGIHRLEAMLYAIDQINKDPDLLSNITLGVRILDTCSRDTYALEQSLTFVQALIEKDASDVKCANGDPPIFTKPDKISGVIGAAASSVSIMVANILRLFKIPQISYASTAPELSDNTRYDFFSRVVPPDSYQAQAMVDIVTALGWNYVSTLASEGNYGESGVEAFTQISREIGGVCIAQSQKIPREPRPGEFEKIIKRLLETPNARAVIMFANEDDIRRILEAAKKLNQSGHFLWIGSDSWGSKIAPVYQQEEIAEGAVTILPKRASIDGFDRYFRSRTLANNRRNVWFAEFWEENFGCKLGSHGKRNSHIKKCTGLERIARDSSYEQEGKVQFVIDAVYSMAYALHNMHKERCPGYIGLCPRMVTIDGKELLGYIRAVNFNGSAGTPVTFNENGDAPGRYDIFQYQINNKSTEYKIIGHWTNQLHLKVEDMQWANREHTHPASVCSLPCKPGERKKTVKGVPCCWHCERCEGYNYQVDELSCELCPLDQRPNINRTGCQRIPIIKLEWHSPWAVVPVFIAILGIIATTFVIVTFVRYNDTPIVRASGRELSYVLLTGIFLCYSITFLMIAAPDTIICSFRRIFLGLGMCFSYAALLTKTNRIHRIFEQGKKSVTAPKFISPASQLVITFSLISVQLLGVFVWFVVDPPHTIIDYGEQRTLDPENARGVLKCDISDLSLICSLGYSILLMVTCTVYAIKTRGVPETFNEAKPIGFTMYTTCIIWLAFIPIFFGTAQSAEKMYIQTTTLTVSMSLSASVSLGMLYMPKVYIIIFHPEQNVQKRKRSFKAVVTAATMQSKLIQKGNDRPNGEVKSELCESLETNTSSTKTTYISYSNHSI

Compound	z-score
Cc1ccc(CNC(=O)C2CCCN(C(=O)N(C)C)C2)cc1 (stereo not given)	-0.391
Cc1ccc(F)cc1NC(=O)Cc1ncc(C(F)(F)F)cc1Cl	-0.126
CCOC(=O)c1[nH]c(C)c(/C(O)=C2\C(=O)C(=O)N(CCCN(CC)CC)C2c2cccnc2)c1C (stereo not given)	-0.0267
C=CCNC(=S)Nc1ccc(Br)cc1F	-0.377
CCn1c(SC(C)C(=O)O)nnc1-c1cccnc1 (stereo not given)	0.16
Cc1nnc(SCC(=O)N2CCC(Cc3ccccc3)CC2)n(N)c1=O	0.252
O=C(C1CCCO1)N1CCN(C(=S)Nc2ccccc2Cl)CC1 (stereo not given)	-0.132
CC(C)N1CCC2(CC1)C(C#N)=C(N)NC(S)=C2C#N	-0.314
O=C(Nc1ccc2c(c1)OCO2)Nc1cnccn1	-0.0462
COc1cc2c(cc1OC)C(C)N(C(=O)Cn1ncc3c1-c1ccccc1OC3)CC2 (stereo not given)	0.448
Cc1cccn2c(=O)c3cc(C#N)c(=O)n(CC4CCCO4)c3nc12 (stereo not given)	0.00847
CCS(=O)(=O)N1CCCC(c2nc(-c3cccc(OC)c3)no2)C1 (stereo not given)	-0.0718
COc1ccccc1C(=O)Oc1ccc2c(c1)O/C(=C\c1ccncc1)C2=O	-0.0226
Cc1ccc(Nc2nc(NCC3CCCO3)nc(N)c2[N+](=O)[O-])cc1C (stereo not given)	0.524
CC(C)OP(=O)(OC(C)C)C(NC(=O)c1ccc(Br)cc1)c1ccccc1 (stereo not given)	-0.573
Cc1oc(-c2ccccc2F)nc1CS(=O)(=O)CC(=O)NCc1ccco1	-0.265
Cc1nc2ccc(NC(=O)N3CCOCC3)cc2s1	0.452
COc1ccc(S(=O)(=O)N2C3CCC2CC(NC(=O)NC2CCCCC2)C3)cc1 (stereo not given)	0.764
CCOC(=O)C1CCCN(C(=S)Nc2ccc(C)cc2C)C1 (stereo not given)	0.0188
COc1cc(C=O)c(Br)cc1OC1CCCC1	2.09
CC(=O)Oc1oc(-c2ccccc2)nc1/C=N/c1ccccn1	-1.65
COCCNc1nc(N)c([N+](=O)[O-])c(NCC2CCCO2)n1 (stereo not given)	0.0244

Compound	z-score
CCC(=O)c1ccc(N2CCOCC2)c(F)c1	-0.287
Nc1ccc(Nc2ccccc2)cc1	-0.0331
CCC(C)NS(=O)(=O)c1cccs1 (stereo not given)	0.0332
COc1ccc(C)cc1N(CC(=O)Nc1cccc(N(C)S(C)(=O)=O)c1)S(C)(=O)=O	-0.07
CC1(C)CC(=O)N(CC(=O)NCc2ccccc2)c2ccccc2S1(=O)=O	-0.409
CC(=O)N1CCN(c2ccc(NC(=S)NC(=O)/C=C/c3ccccc3)cc2)CC1	0.391
Cc1ccc2nc(-c3ccc(NC(=O)c4ccco4)cc3)[nH]c2c1	0.0819
O=C(CSc1ncnc2c1oc1ccccc12)Nc1cccc(C(F)(F)F)c1	-0.491
O=C(CCCc1ccccc1)Nc1nncs1	-1.19
CC(C)c1ccc(C(C(=O)NC2CCCC2)N(C(=O)CNC(=O)c2ccco2)c2cccnc2)cc1 (stereo not given)	-0.665
CC(C)CC(=O)Nc1ccc(-c2cn3ccsc3n2)cc1	-0.00111
Cc1cccc(N2CCN(C(=O)c3ccc(Cl)c(S(=O)(=O)N4CCc5ccccc5C4)c3)CC2)c1C	active: 3.61
C/C(=N/OCO/N=C(\C)c1ccc(F)cc1F)c1ccc(F)cc1F	-0.222
COc1cccc(-c2nc(-c3ccc(NC(=O)Cc4ccccc4OC)cc3)no2)c1	0.363
N#Cc1cccc(C(c2nnnn2C2CCCC2)N2CCC(Cc3ccccc3)CC2)c1 (stereo not given)	-0.0758
O=C(NCCc1ccccc1)/C(=N\O)c1ccccc1	1.09
Cc1ccc(C2NC(=O)Cc3ccccc32)cc1 (stereo not given)	0.00417
CSCCC(NC(=O)c1cccc(C)c1)C(=O)OCC(=O)NC(=O)c1cccn1C (stereo not given)	-0.329
CC(=O)NCC1=C(NC(C)=O)C2CC1C(C)(C)C2C (stereo not given)	1.18
N#Cc1c2c(c(NCc3cccnc3)n3c1nc1ccccc13)CCC2	-2.03
COc1cc(/C=N/NC(N)=S)cc(Br)c1OCc1ccccc1F	-0.174
COc1ccccc1C(=O)OCCN1CCOCC1	0.692

Compound	z-score
CS(=O)(=O)N(CC(=O)N1CCN(c2ccccc2)CC1)c1ccc(Cl)c(C(F)(F)F)c1	-0.0753
CCN1CCc2c(C#N)c(N3CCOCC3)nc(NCc3ccccc3)c2C1	0.164
Cc1cc(C)c2nc(NC(=O)[C@@H](NC(=O)c3cccc(S(=O)(=O)N4CCOCC4)c3)C(C)C)sc2c1	-0.0566
Cc1ccc2nc(SC(C(=O)c3ccccc3)c3ccccc3)nc(C)c2c1 (stereo not given)	-0.141
Cc1nc2ccccc2n1C(=O)c1cc(-c2ccc(Br)cc2)nc2ccccc12	-0.166
CC1Cc2nc(SCC(=O)c3ccccc3)n(Cc3ccccc3)c(=O)c2S1 (stereo not given)	-0.123
CCOC(=O)CNc1c(-c2ccccc2)nc2ccc(Cl)cn12	-0.241
C=CCOc1ccc(/C=N/NC(=O)CN(c2cc(Cl)ccc2OC)S(=O)(=O)c2ccc(C)c([N+](=O)[O-])c2)cc1	0.0567
Cc1ccc(S(=O)(=O)N2c3ccccc3NC(=O)CC2C)cc1 (stereo not given)	-0.22
Cc1cccc(N2CCN(C(=O)c3ccoc3C)CC2)c1C	-0.311
CC(C)C1S/C(=N/N=C/c2ccco2)NC1=O (stereo not given)	-0.192
CCCCSc1nc2ccc(Nc3nc(N4CCOCC4)nc(N4CCOCC4)n3)cc2s1	-0.297
COCCNC(=O)C1CC(c2ccc(F)cc2)=NO1 (stereo not given)	-0.0424
Cc1ccc(C)c(N2CCN(C(=O)C3CCCN(S(=O)(=O)c4c(C)[nH]c(=O)[nH]c4=O)C3)CC2)c1 (stereo not given)	-0.243
CCNC(=S)N/N=C/c1c(Cl)cccc1Cl	active: 5.15
CC1CC(N(C(=O)c2ccccc2Cl)c2ccccc2)c2ccccc2N1 (stereo not given)	-0.277
Cc1ccc(S(=O)(=O)c2c(N)n(CCC(C)C)c3nc4ccccc4nc23)cc1	-0.205
Cc1cc(C)cc(OCc2nnc(SCC(=O)OC(C)C)o2)c1	-1.32
Cc1ccccc1NC(=O)NCCN1C(=O)C2C3C=CC(C3)C2C1=O (stereo not given)	0.682
O=C1c2ccccc2C(=O)N1CC(O)COCc1ccccc1 (stereo not given)	-0.538
Cc1cc(C)c(NC(=O)c2ccoc2C)c(C)c1	0.489
Cc1cccc(N(CC(=O)N2CCOCC2)S(C)(=O)=O)c1C	0.189

Compound	z-score
COC(=O)Cn1cnc2c1c(=O)n(C)c(=O)n2C	-0.32
O=C(C[n+]1cc(-c2ccc(F)cc2)n2c1CCC2)Nc1nc(-c2ccc(F)cc2)cs1	0.552
COC1=C(Nc2ccc(C)cc2)C(=O)c2ccccc2C1=O	-0.651
COc1ccc(CSc2nc3ccccc3[nH]2)cc1	0.53
Cc1cc(C(=O)OCC(=O)c2ccc(Br)s2)c(C)o1	-0.018
CC(=O)c1cn(CC(=O)Nc2ccccc2)c2ccccc12	0.0362
CC(C)c1cc(C(=O)Nc2cc(Br)ccc2O)no1	-0.161
COCCCNc1cc(C)nc2ccccc12	0.57
O=C(O)c1cccc(Nc2nc(-c3cccnc3)nc3ccccc23)c1	-0.747
Cc1cc(C)c2c(n1)nn1c(N3CCN(c4cccc(Cl)c4)CC3)cc(C)nc21	-0.292
COc1ccc(CC(=O)Nc2cccc(-c3nnc(-c4ccccc4)o3)c2)cc1OC	-0.509
O=C(O)c1ccc(CNCc2ccc(Cl)cc2Cl)cc1	-0.14
O=C(Nc1ccc(O)cc1)c1cc2n(n1)C(C(F)(F)F)CC(c1ccco1)N2 (stereo not given)	0.91
COc1ccc(CNC(=O)C2CCN(c3nccs3)CC2)cc1	-0.318
COc1ccc(S(=O)(=O)NC(CC(=O)NCc2ccco2)c2ccco2)cc1 (stereo not given)	0.275
O=C(CN1C(=O)c2cccc3cccc1c23)Nc1ccccc1C(=O)NCc1ccco1	0.291
COCCNC(=O)c1ccccc1NC(=O)CN(c1ccc2c(c1)OCO2)S(C)(=O)=O	0.501
COc1ccccc1/C=N/OCC(=O)NCc1ccc2c(c1)OCO2	-0.0335
Cc1cccc(C)c1-n1nnnc1SCSc1nnnn1-c1c(C)cccc1C	0.234
Cn1c(=O)n(Cc2ccccc2F)c2ccccc21	-0.668
CCC(=O)N1CCc2cc(OC)c(OC)cc2C1COc1ccc(C(=O)OC)cc1 (stereo not given)	-0.946
CNC(=O)COc1ccc(-c2nn(C)c(=O)c3ccccc23)cc1	-0.157

Compound	z-score
CC(=O)NC(CC(=O)NCC(c1ccco1)N(C)C)c1ccccc1 (stereo not given)	0.0433
Cc1ccc(C(C)C)c(OCc2nnc(SCC(=O)Nc3ncc(C)s3)n2C)c1	0.524
CC1CC(C(F)F)n2nc(C(=O)Nc3sc4c(c3C#N)CCC(C(C)(C)C)C4)nc2N1 (stereo not given)	0.092
COc1cccc(C(=O)Nc2cc(C(=O)NCCc3ccccc3)ccc2Cl)c1	-0.18
Cc1cccc(C(=O)c2c(N)sc3c2CCCC3)c1	0.36
O=C(NCC(=O)N(c1cccnc1)C(C(=O)NC1CCCCC1)c1cccnc1)c1ccco1 (stereo not given)	0.255
Cc1ccc(C)c(NC(=O)C2CCC(C)(C(=O)O)C2(C)C)c1 (stereo not given)	-0.0102
CCOC(=O)c1cc2ccc(OC(=O)c3ccco3)cc2oc1=O	0.37
CCCN(CCC)S(=O)(=O)c1ccc(C(=O)Nc2nnc(-c3cccc(OC)c3)o2)cc1	active: 3.65
O=C(Nc1ccc2c(c1)OCO2)c1ccc2nc[nH]c2c1	-0.201
CC1(C)CC(=O)C2=C(C1)Nc1nc(SCCN3CCOCC3)[nH]c(=O)c1C2c1cccs1 (stereo not given)	-1.9
Cc1cccc(C)c1N1CCN(c2ccc3nnc(C(F)(F)F)n3n2)CC1	0.438
Cc1cc(C)cc(NC(=O)CCN2CC(C)OC(C)C2)c1 (stereo not given)	-0.154
CCOCc1cc(C2NC(=O)NC(C)=C2C(=O)OCC)ccc1OC (stereo not given)	0.0607
Cc1ccc2nc(N/C(N)=N/S(=O)(=O)c3ccc([N+](=O)[O-])cc3)nc(C)c2c1	-0.127
O=C(CCS(=O)(=O)c1ccc(Br)cc1)Nc1ccc(Br)cc1F	0.276
CCOC(=O)C1CCN(Cc2cccc(OC)c2)CC1	-0.192
O=C1C(C=NCc2ccccn2)=C(O)c2ccccc21	-0.00613
CCOC(=O)N1CCN(S(=O)(=O)c2cc(-c3nn4c(C)nnc4c4ccccc34)ccc2C)CC1	-1.79
CCn1c(COc2ccccc2OC)nnc1SCC#N	-0.326
CCOC(=O)N1CCC(N(C(=O)Nc2ccc(CC)cc2)C(C)CC)CC1 (stereo not given)	0.168
O=C1c2[nH]nc(-c3ccccc3O)c2C(c2ccc(F)cc2)N1Cc1ccco1 (stereo not given)	0.574
